Among the data in the RNAGym collection of RNA variant scans (doi:10.1093/nar/gkz1192) are self-cleavage values, retold here.

The source gives no read counts; variants with many changes may rest on few reads.

B1: CPEB3 Ribozyme (parent)
chain: UAACAGGGGGCCACAGCAGAAGCGUUCACGUCGCAGCCCCUGUCAGAUUCUGGUGAAUCUGCGAAUUCUGCUGUAUAUCUC

This data set covers variants of B1. Put plainly: self-cleavage, relative activity (ratio to wild type); higher = more cleavage; in vitro, sequencing. In short, it runs like this:
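Relative activity was defined as the cleaved/total read fraction for a variant divided by the same fraction for the unmutated ribozyme. CPEB3 self-cleaving ribozyme libraries were made by rounds of error-prone PCR, barcoded, and transcribed in vitro with T7 RNA polymerase for 5 hours at 37°C, and cleavage ran through transcription plus a 15 min DNase I step before EDTA. Illumina sequencing of template-switched reverse transcripts gave the reads, and DNA sequencing mapped the barcodes. Averages come from three batches, using variants with at least 5 reads.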
A5U U31A G42C: the self-cleavage was 0.26. Under A5U U31A A57U stands 0.19; under G6A U41C U49C U78C U80C, 0.09; under G6A A35U U49A A65G U69C U72A, 0.05. For the variant A5U U31A U60A, the self-cleavage came to 0.4. Under G6A A13U A47U stands 0.32; under G6A A20G U43A U48C A65C U69C, 0.05. G6A A35U U69C: the self-cleavage was found to be 0.12. Turning to A5U U48C G52A G63U U67C, the self-cleavage was 0.35. Under G6A A64G A65G U76A U80C stands 0.05; under G6A A21G U31C A35G U49C A64G, 0.13; under G6A A15G U43C U67C, 0.15.

Regarding G6A A13G U41A A45G U76C U78A, the self-cleavage was found to be 0.05. As for G6A A45U U60C U78A U80A, the figure is 0.17.

Regarding G6A U41C U66A, the self-cleavage was found to be 0.14. Consider G6A G33U A57U U67A, for which the self-cleavage was 0.07. In the case of G6A U26A U31C U60C U72C, the self-cleavage is 0.06. As for G6A A45G A65U U67A, the figure is 0.39; as for G6A U41C G53U U67A U74C, 0.22; as for G6A A21G U31C U41A U54C, 0.08. Under G6A U41C U60C A64G U69C stands 0.04; under A5U U60A A64G, 0.69; under G6A U41A U43C A45G A56G A57G U69A, 0.06. With G6A C11A A15G U69C U72A, the self-cleavage is 0.07. Regarding A5U U67C U76C, the self-cleavage is 0.32.

For the variant G6A A45C U69C, the self-cleavage was determined as 0.13. Under A5U U48C U66C U69A C71U stands 0.08. Under G6A G36C A57G U74A stands 0.05; under G6A A35G A56G, 0.57. Under G6A C12U U60C U72A stands 0.17; under G6A A18G A35U A64G U66C U72C, 0.04. On to G6A C32A U72C, for which the self-cleavage amounted to 0.3. Under A5U U26C U76A stands 0.88; under G6A C34U A64U, 0.19.

Consider G6A C39U A57U U66A, for which the self-cleavage was determined as 0.21.

In the case of A5U U31C U51C U60A A64G G73U, the self-cleavage amounted to 0.13. Under G6A G9A U31A U43A A45C U51C A64G stands 0.04. As for G6A A56G U74G, the figure is 0.7; as for G6A A15G A18C U25C U48C G73U A75U, 0.03. With G6A A21G U25C U41C U60C, the self-cleavage came to 0.31. Turning to G6A U26C A35G C37U U48C U54C U72A, the self-cleavage was found to be 0.05. As for A5U U41C A45U, the figure is 0.48; as for G6A A20G C32A A64G, 0.18; as for G6A A15U A20G, 0.18.

For the variant G6A A28G C29G U31A A45G U54A A57U, the self-cleavage stood at 0.05.

In the case of G6A U26C C39U, the self-cleavage is 0.28. As for G6A G9A C29U A56U A65G U66A U78C, the figure is 0.05; as for G6A G8U A13G A35G U74C U80C, 0.05. Take G6A G46A A56U U67A: the self-cleavage was found to be 0.07. As for G6A A18G A75U, the figure is 0.34. Take G6A G9U A15G: the self-cleavage is 0.46. Under G6A U41A A77G stands 0.41; under G6A A35G U41A A64U U80C, 0.06. For the variant G6A U48C U72C, the self-cleavage was 0.16. Under A5U U43C A57G U74C A75C stands 0.6; under G6A U31A C62A U80C, 0.06; under A5U U60C U74C, 0.82. With G6A C14G A18G A75U, the self-cleavage is 0.37. Under A5U U51A U74A U80A stands 1.04; under G6A C62U U67C, 0.11. Under A5U U49C G52A U80C stands 0.68; under G6A U41A A64G, 0.08; under G6A U43A U67A, 0.05. As for G6A C12A U67C, the figure is 0.2; as for A5U U48C U49C C50G, 0.17. Consider G6A A18G A35U U54A, for which the self-cleavage amounted to 0.36. Turning to G6A U26C U78C, the self-cleavage worked out at 0.51. As for G6A A28G U43C A65G U66C A77U, the figure is 0.05.

With G6A U25C A35U U54C, the self-cleavage worked out at 0.05. In the case of A5U U31A A35G, the self-cleavage amounted to 1.21.

G6A U26C G42A A56G U60A: the self-cleavage turned out to be 0.06. As for G6A G24A G46A A57G U74A, the figure is 0.13; as for A5U U51C U74C, 1.18. Regarding G6A A64G U78A, the self-cleavage stood at 0.43. Under A5U U49C A56U U78C stands 0.7. Under G6A U41C A45G stands 0.22.

With G6A A18G A20G U41C U58C A65U U72A, the self-cleavage is 0. As for G6A G9U C29U, the figure is 0.29. Under G6A A15G U69A U80G stands 0.17; under G6A G33C G55U C62G U72C A75G U80C, 0.03. Under G6A A35C U58C U76A U80A stands 0.45; under A5U U41A G55A G61A U78C, 0.04; under G6A G30U A45C U51A U60C, 0.13.

Turning to G6A C32U A35U A45G U72A U80C, the self-cleavage is 0.05.
